± gives the standard deviation of the averaged measurements. The full ranking holds about 33,000 sequences; the median of “E-score (dimensionless, -0.5 to 0.5)” is about -0.049, and the highest 2% start at about 0.37. The list shows a part of the results.
test system: T1, PmTbr T-box DNA-binding domain (GST fusion); assay: PBM E-score of 8-mer (E-score (dimensionless, -0.5 to 0.5)); Tbr is Tbrain of the sea star Patiria miniata (Pm) or the sea urchin Strongylocentrotus purpuratus (Sp); higher = stronger binding preference; most listed sequences are background and not binding sites; details: the construct has about 5 more residues each side
T1 sequence: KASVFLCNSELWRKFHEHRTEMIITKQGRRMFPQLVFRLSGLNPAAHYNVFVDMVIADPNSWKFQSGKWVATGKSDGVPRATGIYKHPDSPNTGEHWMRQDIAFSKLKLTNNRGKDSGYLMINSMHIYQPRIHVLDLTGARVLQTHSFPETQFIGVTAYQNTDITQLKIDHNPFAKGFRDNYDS
Protocol: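 Universal protein-binding microarray (Agilent AMADID 016060, 60-bp probes with a 35-bp variable region) incubated with 200 nM GST-fused Patiria miniata Tbr T-box DNA-binding domain (residues 272-466) in PBS pH 7.5. Scored for every ungapped 8-mer (given with its reverse complement) by the Universal PBM Analysis Suite as E-score (modified Wilcoxon-Mann-Whitney enrichment, range -0.5 to 0.5; >0.45 counts as bound) and Z-score of median probe intensity. Two replicate arrays (datasets 1 and 2).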
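Also: 200 nM protein in PBS on universal arrays averaged over duplicate arrays.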

Row | Sequence | PBM E-score of 8-mer
1 | CCCATCGG | -0.195 ± 0.024
2 | AGGCTCTA | -0.144 ± 0.061
3 | ATCGCTCC | -0.0423 ± 0.0074
4 | TCAAGAGA | -0.172 ± 0.012
5 | TCATATCA | 0.0153 ± 0.0093
6 | CCATCCAC | 0.00695 ± 0.069
7 | CCGCAACG | -0.264 ± 0.075
8 | ATTATCAA | -0.0417 ± 0.055
9 | AACTGATC | -0.2 ± 0.0057
10 | ATAGGGTG | 0.231 ± 0.035
11 | GTTGGATA | 0.108 ± 0.047
12 | ACTATGAC | 0.0904 ± 0.059
13 | ATTTGTCG | 0.262 ± 0.027
14 | ACGAACTG | 0.0451 ± 0.03
15 | AAATTACG | -0.0256 ± 0.05
16 | AGGGATGC | -0.183 ± 0.046
17 | ACGTAAGT | 0.0948 ± 0.03
18 | AAGCCTTG | -0.0225 ± 0.02
19 | CCGGAGCC | -0.112 ± 0.18
20 | GCCTGGCC | -0.0923 ± 0.038
21 | ATACGATA | 0.0398 ± 0.072
22 | ACCTTGAA | 0.0851 ± 0.016
23 | CCTATCCA | -0.209 ± 0.054
24 | GACTATGC | -0.0692 ± 0.011
25 | TCACATCA | 0.255 ± 0.009

Row | Sequence | PBM E-score of 8-mer
26 | CCTCATGA | -0.144 ± 0.08
27 | ACCTAGTC | 0.119 ± 0.0012
28 | AGGGCTAT | -0.246 ± 0.0093
29 | TACACGAA | -0.0991 ± 0.0076
30 | ATCCGTTG | -0.0623 ± 0.061
31 | GACCACCC | -0.06321 ± 0.00032
32 | ATGGATGA | -0.197 ± 0.058
33 | CAAGAGGG | -0.126 ± 0.0039
34 | TACGGGAA | -0.23 ± 0.017
35 | AGGAGTTA | -0.127 ± 0.016
36 | CGGGAGAA | -0.134 ± 0.018
37 | AACGTATG | -0.179 ± 0.018
38 | ACCACCCG | 0.189 ± 0.017
39 | GAGGACAA | -0.0269 ± 0.021
40 | CCCCGCGA | 0.1754 ± 0.0015
41 | CCCTGACA | 0.244 ± 0.048
42 | ATAGCCCA | -0.0833 ± 0.05
43 | TACAACGA | -0.18 ± 0.034
44 | CAATTTGA | -0.128 ± 0.16
45 | CGGAGGTC | -0.141 ± 0.044
46 | CGAAACCC | -0.0661 ± 0.019
47 | ACACGCTG | 0.153 ± 0.0079
48 | ATAAGCTC | -0.0944 ± 0.13
49 | ACTTCGCT | 0.121 ± 0.023
50 | CATAGTTA | 0.0714 ± 0.0011

Row | Sequence | PBM E-score of 8-mer
51 | CTGTCGGC | 0.137 ± 0.02
52 | AGCGTGGC | 0.0403 ± 0.0048
53 | AATCTATG | -0.219 ± 0.0052
54 | CCAGCTGC | -0.0939 ± 0.066
55 | GATTTGAC | 0.143 ± 0.074
56 | TATGGTGA | 0.074 ± 0.043
57 | CGATCCCG | -0.137 ± 0.016
58 | GAGGGGCC | -0.226 ± 0.01
59 | CTCCGCCA | -0.0826 ± 0.079
60 | AATATACT | -0.236 ± 0.063
61 | CCTTACAA | -0.0184 ± 0.028
62 | AGTAGTAG | -0.0705 ± 0.015
63 | ACTTGCCC | 0.0722 ± 0.024
64 | GCTCAGCC | -0.289 ± 0.078
65 | GGGACCAA | -0.186 ± 0.027
66 | CAAACTAA | -0.115 ± 0.05
67 | AAGGATTC | -0.18 ± 0.066
68 | ACCTTCCC | -0.0548 ± 0.0098
69 | CTAGCACC | 0.449 ± 0.006
70 | AAGTTCAG | -0.258 ± 0.043
71 | GACTGGTA | 0.0439 ± 0.029
72 | AGCACTTG | 0.242 ± 0.011
73 | AAACGCAG | -0.00768 ± 0.0065
74 | AGTTAAGA | -0.162 ± 0.076
75 | CGCTGACC | -0.0927 ± 0.15

Row | Sequence | PBM E-score of 8-mer
76 | GACCATAC | -0.219 ± 0.028
77 | GGCGACCC | -0.0415 ± 0.017
78 | ACGTTGGC | 0.195 ± 0.017
79 | CGTATTGC | -0.15 ± 0.014
80 | CGGGAATA | -0.078 ± 0.027
81 | AGCAGAAC | -0.287 ± 0.013
82 | GGGGTTAC | -0.192 ± 0.024
83 | CTTGGACC | -0.1866 ± 0.00072
84 | CGGGCGAC | 0.156 ± 0.0072
85 | AGTCGTGA | 0.169 ± 0.018
86 | CTATGTGC | 0.142 ± 0.047
87 | ACTAGAGA | -0.268 ± 0.051
88 | CCGGTCTC | -0.122 ± 0.01
89 | AGCATGCG | -0.095 ± 0.047
90 | AGTACTCA | -0.0666 ± 0.012
91 | GGGGGTTA | -0.158 ± 0.1
92 | CCGGGATA | -0.0952 ± 0.054
93 | CGCCGTCC | -0.149 ± 0.026
94 | GTACCGGA | -0.226 ± 0.049
95 | CTACTATA | -0.348 ± 0.016
96 | ACAAGGAA | -0.102 ± 0.11
97 | GCGCGCAA | 0.17 ± 0.025
98 | ACAATCCC | 0.0507 ± 0.0081
99 | AAGTTGGT | 0.00318 ± 0.069
100 | CAAGTGTA | 0.178 ± 0.035

Row | Sequence | PBM E-score of 8-mer
101 | AAGATGGG | -0.073 ± 0.026
102 | CGTTCTAA | -0.0911 ± 0.12
103 | TCACCCAA | 0.146 ± 0.045
104 | GCCGTCGA | -0.044 ± 0.08
105 | GGCTCCCA | -0.0705 ± 0.028
106 | ATGGAGGG | -0.0626 ± 0.039
107 | ATTGCCGC | 0.0867 ± 0.0053
108 | CAACCACC | 0.0716 ± 0.0078
109 | AGTCCATG | 0.0305 ± 0.037
110 | ACCTGAAC | 0.002 ± 0.024
111 | GCTGATCC | -0.0935 ± 0.017
112 | AGAATAAC | -0.00186 ± 0.026
113 | AAAATATC | 0.121 ± 0.063
114 | CGGTACAA | -0.0942 ± 0.04
115 | AGAAGCCT | -0.175 ± 0.026
116 | CGGCCCGC | -0.191 ± 0.011
117 | CGGTAGAG | 0.0253 ± 0.0033
118 | AGGCTGGC | -0.105 ± 0.011
119 | AGGCCTTG | -0.324 ± 0.084
120 | AAACAACG | -0.0631 ± 0.024
121 | GAGGTCGA | -0.075 ± 0.079
122 | GTGGATAA | 0.00437 ± 0.013
123 | AACAACCT | 0.134 ± 0.01
124 | AGGGTATC | -0.07494 ± 0.00061
125 | AACACGTC | 0.399 ± 0.021

Row | Sequence | PBM E-score of 8-mer
126 | GGTAGAAA | -0.0423 ± 0.066
127 | GCATCTCC | -0.172 ± 0.042
128 | CGCCAACC | 0.197 ± 0.0065
129 | ACACTCTC | 0.361 ± 0.0087
130 | AGCGAAAC | -0.0654 ± 0.014
131 | CCGCCACA | 0.143 ± 0.069
132 | CTTTTTCC | -0.246 ± 0.052
133 | AGATATAT | -0.0934 ± 0.11
134 | ATTGATCA | -0.0998 ± 0.043
135 | AGTGACCC | 0.05099 ± 9.9e-05
136 | CGCGATTA | 0.258 ± 0.031
137 | CCCAAACA | -0.167 ± 0.017
138 | AATATCGC | 0.255 ± 0.0089
139 | CCACGCGC | 0.194 ± 0.0076
140 | CCGTTGTA | -0.058 ± 0.026
141 | GCGTGTAC | 0.0966 ± 0.026
142 | GAGTTTCA | -0.0913 ± 0.042
143 | GATTTCGC | 0.288 ± 0.012
144 | AGTACGTC | -0.0533 ± 0.09
145 | AATACTTG | -0.0724 ± 0.093
146 | CACGCAGC | -0.0161 ± 0.1
147 | ATAGATCG | -0.00864 ± 0.015
148 | CTCTAAAA | -0.108 ± 0.0074
149 | CAAGTTAG | -0.0266 ± 0.021
150 | GCAGCTAC | -0.038 ± 0.025

Row | Sequence | PBM E-score of 8-mer
151 | CGCCTAAA | 0.124 ± 0.038
152 | AGGTCAGC | -0.0928 ± 0.038
153 | CCCATGCG | -0.212 ± 0.063
154 | TATATCAA | -0.217 ± 0.045
155 | AAGATTTA | 0.023 ± 0.04
156 | CCCAACAC | 0.385 ± 0.0085
157 | CACTATGA | 0.155 ± 0.034
158 | ACTATAAT | -0.22 ± 0.028
159 | AGGAAATC | -0.104 ± 0.033
160 | CCACAAAA | 0.184 ± 0.022
161 | ACGTTGCG | 0.117 ± 0.016
162 | CCTGTAAC | 0.181 ± 0.0083
163 | GCCATAGC | -0.087 ± 0.04
164 | AAATCATC | 0.12 ± 0.033
165 | AAAAATGT | 0.104 ± 0.079
166 | AGACTCTG | -0.158 ± 0.024
167 | AAGTAGCT | 0.0198 ± 0.1
168 | GTTGTATA | -0.15 ± 0.013
169 | AAGAGGCA | -0.191 ± 0.024
170 | AATGATCC | -0.152 ± 0.052
171 | AGAACAAG | -0.0407 ± 0.016
172 | CCAAGCAA | 0.0742 ± 0.025
